From publication PMC4336329 (PLoS ONE, 2015)
Among all 310,000 compounds or so, about 14,000 (4.5%) showed an effect of 50% or more. Effects have a minus sign here. This is one part of the list.

Biological target: human ether-à-go-go-related gene (hERG) potassium channel (human, UniProt Q12809)
Test: primary screen, population patch clamp on CHO cells stably expressing hERG
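Also: peak tail current of the secondary pulse compared with the same well before compound.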

human ether-à-go-go-related gene (hERG) potassium channel, sequence (Q12809 whole entry, looked up): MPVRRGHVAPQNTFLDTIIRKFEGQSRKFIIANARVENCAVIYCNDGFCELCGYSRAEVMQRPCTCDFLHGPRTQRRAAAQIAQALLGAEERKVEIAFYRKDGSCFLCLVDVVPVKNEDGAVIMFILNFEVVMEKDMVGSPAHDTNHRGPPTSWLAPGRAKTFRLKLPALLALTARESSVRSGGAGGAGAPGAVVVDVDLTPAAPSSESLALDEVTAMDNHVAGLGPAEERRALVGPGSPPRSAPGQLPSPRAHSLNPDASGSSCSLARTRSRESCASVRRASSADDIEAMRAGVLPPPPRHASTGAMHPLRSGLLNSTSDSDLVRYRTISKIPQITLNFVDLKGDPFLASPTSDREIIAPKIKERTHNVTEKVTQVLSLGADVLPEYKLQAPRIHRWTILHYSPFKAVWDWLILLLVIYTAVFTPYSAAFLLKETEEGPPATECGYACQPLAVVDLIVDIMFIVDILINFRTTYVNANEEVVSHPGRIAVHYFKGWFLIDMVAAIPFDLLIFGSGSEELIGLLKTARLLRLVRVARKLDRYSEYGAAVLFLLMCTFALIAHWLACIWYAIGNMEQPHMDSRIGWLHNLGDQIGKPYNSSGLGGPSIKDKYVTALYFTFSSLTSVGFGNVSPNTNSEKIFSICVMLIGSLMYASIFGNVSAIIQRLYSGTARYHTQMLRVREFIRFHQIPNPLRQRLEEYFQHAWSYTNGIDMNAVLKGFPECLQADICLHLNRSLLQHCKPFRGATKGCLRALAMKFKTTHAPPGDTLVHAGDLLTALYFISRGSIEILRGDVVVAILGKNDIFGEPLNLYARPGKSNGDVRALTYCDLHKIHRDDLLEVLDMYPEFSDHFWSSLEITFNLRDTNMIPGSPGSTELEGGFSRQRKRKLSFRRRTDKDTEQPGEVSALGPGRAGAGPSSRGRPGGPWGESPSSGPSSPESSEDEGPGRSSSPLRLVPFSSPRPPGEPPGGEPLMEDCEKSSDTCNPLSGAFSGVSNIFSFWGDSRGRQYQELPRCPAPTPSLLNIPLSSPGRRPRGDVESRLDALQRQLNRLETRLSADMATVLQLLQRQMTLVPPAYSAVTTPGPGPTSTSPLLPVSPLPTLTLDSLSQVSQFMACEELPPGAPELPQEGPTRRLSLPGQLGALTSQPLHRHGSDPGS

Compound | hERG current change (%, negative = inhibition) at 10uM [%]
Cc1nc(C)c(C(=O)NNC(=O)Nc2ccc(Cl)cc2)s1 | 17.1
CCNC(=S)N/N=C(\C)c1ccco1 | 24.5
O=C(Nc1ccc(O)cc1)c1cc(S(=O)(=O)N2CCCC2)ccc1Cl | -14.9
CCCN(CCC)CCCNC(=O)c1cc2c(-c3ccc(OC)c(OC)c3)nn(C)c2s1 | -6.94
C=CCSc1ncccc1C(=O)O | 11.7
CC(C)(C)C(=O)Nc1cccc2[nH]ncc12 | 2.87
O=C(c1c[nH]c(C(=O)C(Cl)(Cl)Cl)c1)c1ccccc1Br | 7.57
Cc1cc(NC(=O)c2cc(-c3ccc(C)c(C)c3)nc3ccccc23)no1 | -1.48
CSc1nc(Cl)cc(=O)[nH]1 | 9.66
Cc1ccc(S(=O)(=O)Cn2nnnc2C(CC(C)C)N2CCN(C3CCCC3)CC2)cc1.Cl (stereo not drawn) | -33.7
CCC(=O)NC(Nc1sc2c(c1C(=O)OC)CCCC2)(C(F)(F)F)C(F)(F)F | 6.74
COc1ccc(NC(=O)CN2C(=O)COc3ccccc32)cc1OC | 17.8
CCOC(=O)C1=C(C)N(CC(C)C)C(=O)C1 | 11.4
CCCc1c(O)nc(SCCN(CC)CC)n(C(=O)c2ccccc2)c1=O.Cl | -58
O=C(O)/C=C/c1cnc2ccccc2c1 | 19.1
CCCOc1ccc(C(=O)Nc2c[nH]c(=O)[nH]c2=O)cc1 | -6.41
COc1ccc(-c2noc(C3CCCN(C(=O)Nc4ccccc4)C3)n2)cc1 (stereo not drawn) | -36.4
CN(c1ccccc1C(=O)Nc1cccnc1)S(C)(=O)=O | 0.564
Cc1ccccc1NC(=O)c1ccc(COc2ccc3c(C)cc(=O)oc3c2)cc1 | 17.7
CCOC(=O)c1ccc(-c2ccc3[nH]c4ccccc4c(=O)c3c2)cc1F | 13
CC(=O)Oc1c(Sc2ccccc2[N+](=O)[O-])c(C)nn1C(C)(C)C | 0.394
Cc1ccc(SCC(=O)NCc2ccc(F)cc2)cc1 | -1.72
Cc1cccc(NC2=NCC(=O)N2Cc2ccccc2)c1 | 11.9

Compound | hERG current change (%, negative = inhibition) at 10uM [%]
Fc1ccccc1CSc1ncnc2c1oc1ccccc12 | 17.9
O=C(O)C1C(C(=O)O)C1(c1ccccc1)c1ccccc1 (stereo not drawn) | 20.4
COc1ccc(F)c(C2C(C#N)=C(N)Oc3n[nH]c(C(C)(C)C)c32)c1 (stereo not drawn) | 2.53
COc1ccc(N2CCN(CCC(=O)c3ccc4ccccc4c3)CC2)cc1 | -11.2
COc1ccc(CCNC(C)CCc2ccc(OC)cc2)cc1 (stereo not drawn) | -13
COc1ccc(OC)c(NC(=O)CSc2nc3n[nH]c(C)c3c(=N)n2-c2cccc(Cl)c2C)c1 | -12.7
NNC(=O)/C=C/c1ccc(Cl)cc1Cl | 10.3
O=C(Nc1cc(S(=O)(=O)N2CCCCC2)ccc1Cl)C1=NN(c2ccccc2)C(=O)CC1 | 12.6
O=C(/C=C/c1ccc(-c2cccc([N+](=O)[O-])c2)o1)N1CCOCC1 | -1.16
CCN1c2ccc(S(=O)(=O)N3CCOCC3)cc2N(Cc2ccc(OC)cc2)C1C (stereo not drawn) | 16.5
COc1cccc(/C=N/NC(=O)NC23CC4CC(CC(C4)C2)C3)c1O | -7.74
Cc1ccc(Cl)cc1N1CCN(C(=O)c2cn(C)c(=O)c3c2c2ccccc2n3C)CC1 | 3.75
O=C(Cn1c2ccccc2c(=O)c2ccccc21)N/N=C/c1cc([N+](=O)[O-])ccc1N1CCCCCC1 | 8.8
Cc1c(C(=O)NCc2cccs2)oc2ccccc12 | -18
C#CCOCCOCCOCCNc1nc(N2CCN(C(=O)[C@H](CCCCN)n3cc([C@@H](N)CC(C)C)nn3)CC2)nc(N2CCN(C(=O)[C@H](CCCCN)n3cc([C@@H](N)CC(C)C)nn3)CC2)n1.Cl | 4.98
CC1CCC(NC(=O)c2cccc(S(=O)(=O)N3CCN(c4ccc(F)cc4)CC3)c2)CC1 (stereo not drawn) | -16.9
COc1ccc(/C=N\NC(=O)C2COc3ccccc3O2)cc1O (stereo not drawn) | -15.4
Cc1ccc(S(=O)(=O)Cc2ccc(C(=O)N3CCCCCC3)o2)cc1 | -15.4
Cc1cccc(N=Nc2c(C)c(C#N)c(O)[nH]c2=O)c1 | 14.6
CC(C)n1c(SCC(N)=O)nc2c1c(=O)n(C)c(=O)n2C | 2.93
CN(c1cccc(NC(=O)c2ccc(Cl)c(S(=O)(=O)Nc3ccccc3)c2)c1)S(C)(=O)=O | -9.49
CS(=O)(=O)c1ccc(Cl)c(NC(=O)COC(=O)CCCN2C(=O)c3cccc4cccc(c34)C2=O)c1 | -16.2
